In PubChem BioAssay AID720709 (National Center for Advancing Translational Sciences (NCATS), 2013):
Among all 360,000 compounds or so, about 520 (0.14%) were called active. Inconclusive results, whose numbers are uncertain, are shown with a selection of clear calls. Calls come from the whole dose curve; as a rule, active = well fitted inhibition curve with a large enough effect; inconclusive = small, poorly fitted or top-dose-only effect; inactive = no such curve, though single readings can be large or run the other way. Potencies of inconclusive entries are left out as doubtful fits. Where a SMILES comes first, the peptide text is derived from it. The star is where a group is joined. Boc = CC(C)(C)OC(=O)*

molecular target: Rap guanine nucleotide exchange factor 3 (Homo sapiens) (UniProt O95398); test: qHTS for Antagonist of cAMP-regulated guanine nucleotide exchange factor 3 (EPAC1): primary screen; conditions: EPAC1 GEF assay, Rap1b-BODIPY-GDP exchange fluorescence; activity change, negative = inhibition: at 115 µM (top of the series); note: nearly all actives have a fitted effect of over 50% in size;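 for activity change, negative = inhibition: plate controls were vehicle for no effect and positive control for full effect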
UniProt O95398, sequence (O95398 whole entry, looked up): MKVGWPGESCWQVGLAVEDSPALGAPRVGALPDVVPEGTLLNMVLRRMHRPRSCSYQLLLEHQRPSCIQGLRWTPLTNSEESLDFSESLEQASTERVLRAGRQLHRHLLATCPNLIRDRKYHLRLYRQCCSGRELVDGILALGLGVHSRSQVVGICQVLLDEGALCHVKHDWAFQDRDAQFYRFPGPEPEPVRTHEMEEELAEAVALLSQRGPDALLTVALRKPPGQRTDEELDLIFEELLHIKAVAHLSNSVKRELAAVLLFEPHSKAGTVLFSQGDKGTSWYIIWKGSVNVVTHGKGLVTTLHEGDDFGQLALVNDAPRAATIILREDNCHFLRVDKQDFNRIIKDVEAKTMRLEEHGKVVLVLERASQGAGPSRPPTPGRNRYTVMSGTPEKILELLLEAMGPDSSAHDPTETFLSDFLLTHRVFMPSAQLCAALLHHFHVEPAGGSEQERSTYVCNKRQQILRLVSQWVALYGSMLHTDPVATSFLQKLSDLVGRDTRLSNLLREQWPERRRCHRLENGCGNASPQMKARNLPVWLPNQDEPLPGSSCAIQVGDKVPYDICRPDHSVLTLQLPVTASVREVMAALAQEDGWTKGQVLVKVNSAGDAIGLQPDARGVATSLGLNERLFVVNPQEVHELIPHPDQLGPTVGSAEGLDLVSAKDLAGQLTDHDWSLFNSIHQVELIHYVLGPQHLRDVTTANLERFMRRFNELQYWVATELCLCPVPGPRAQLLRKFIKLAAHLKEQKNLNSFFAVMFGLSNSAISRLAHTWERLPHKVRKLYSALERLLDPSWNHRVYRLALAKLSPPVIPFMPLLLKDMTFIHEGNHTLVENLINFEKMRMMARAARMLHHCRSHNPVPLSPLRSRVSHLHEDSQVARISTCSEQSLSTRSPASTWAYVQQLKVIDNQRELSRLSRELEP
Potency is the fitted concentration of half-maximal effect; tags give direction and shape of the fitted curve.

Compound | Potency | activity change, negative = inhibition
O=C1S/C(=C\c2ccc(N3CCOCC3)o2)C(=O)N1c1ccccc1 | inactive | 
CCS(=O)(=O)c1nc(S(=O)(=O)c2ccc(Cl)cc2)c(NCCCN2CCOCC2)s1 | inactive | 
COc1ccc(CC(=O)NCC2(c3ccc(OC)c(OC)c3)CCCC2)cc1 | inactive | 
CC(C)CCn1c(Oc2ccccc2Cl)nc2c1c(=O)n(C)c(=O)n2C | inactive | 
CC1=C(C(=O)OC(C)C)C(c2cccs2)C(C(=O)OC(C)C)=C(C)N1 | inconclusive [inhibitor, partial curve, poor fit] | 
O=C(NC1CCCCCC1)c1ccc(OCC2CCCO2)cc1 (stereo unspecified) | inconclusive [inhibitor, partial curve] | 
CN(C)C(=O)COc1ccc2cc(-c3ccccc3)c(=O)oc2c1 | inactive | 
O=C1NC(=S)SC1=Cc1cccs1 | inconclusive [inhibitor, full curve] | 
O=C(COC(=O)CCc1ccc(S(=O)(=O)N2CCOCC2)cc1)Nc1cccc(Cl)c1 | inconclusive [inhibitor, full curve, poor fit] | 
CC1(C(=O)OCC(=O)c2c[nH]c3ccccc23)CC1(Cl)Cl (stereo unspecified) | inconclusive [inhibitor, partial curve, poor fit] | 
CCN(CC)C(=O)c1cccc(NC(=O)CCc2nc3sc4c(c3c(=O)[nH]2)CCCC4)c1 | inconclusive [inhibitor, single point] | 
Cc1cccc(-c2nc3c(c(SCC(=O)N4CCOCC4)n2)Cc2c(CO)cnc(C)c2O3)c1 |  | inconclusive: -32.4% [inhibitor]
CN(CC(=O)Nc1cccc(F)c1)C(=O)CN1c2cccc3cccc(c23)S1(=O)=O | inconclusive [inhibitor, single point] | 
CCN(CC(=O)Nc1c(F)cccc1F)C(=O)c1ccc(C(=O)c2ccccc2)cc1 | inconclusive [inhibitor, single point] | 
COC(=O)C(CC(C)C)NC(=O)C(Cc1ccccc1)NC(=O)C1CCCN1C(=O)OC(C)(C)C (stereo not drawn) (Boc-Pro-Phe-Leu-OMe; configuration not given here) | inconclusive [inhibitor, single point] | 
Cc1ccc(C(=O)CCC(=O)Nc2ncccc2O)cc1 | inconclusive [inhibitor, partial curve] | 
O=C1C=C(Nc2ccccc2O)c2ccccc2C1=O | inactive | 
Cc1nc([N+](=O)[O-])c(Br)n1CC(=O)c1ccc2ccccc2c1 | inconclusive [inhibitor, partial curve] | 
COc1ccc(/C=N/Nc2ncnc3sc(C)c(C)c23)cc1 | inconclusive [inhibitor, full curve] | 
S=C(Nc1cccc2ccccc12)NC1CCCCC1 | inconclusive [inhibitor, single point] | 
CCCCCCC(C)n1[nH]c(=O)cc1N (stereo unspecified) | inconclusive [inhibitor, full curve] | 

Compound | Potency | activity change, negative = inhibition
CCCCc1nc2c(C)c(N)cnc2n1Cc1cccc([N+](=O)[O-])c1 | inactive | 
O=C(C(=O)N1CCC(c2ccccc2)CC1)c1ccc(F)c(F)c1 | inactive | 
Cc1cc(/C=C2\SC(=S)NC2=O)c(C)n1C | inconclusive [inhibitor, single point] | 
O=C(CN1c2cccc3cccc(c23)S1(=O)=O)NCc1ccc(F)cc1 | inconclusive [inhibitor, full curve, poor fit] | 
Clc1ccc(-c2nc3cnccn3c2Nc2ccc3c(c2)OCO3)cc1 | inconclusive [inhibitor, partial curve] | 
O=C(NCCC1=CCCCC1)C1CCN(C(=O)Cc2ccccc2)CC1 | inconclusive [inhibitor, full curve] | 
COc1cc(NS(=O)(=O)c2ccc(NC(=S)NC(=O)/C=C/c3ccco3)cc2)ncn1 | inconclusive [inhibitor, full curve, poor fit] | 
O=C(CSc1nc2ccsc2c(=O)n1NC(=O)c1ccccc1)Nc1nccs1 | inconclusive [inhibitor, single point] | 
COC(=O)COc1ccc(/C=C2\SC(=O)N(CC(=O)Nc3ccccc3F)C2=O)cc1 | inconclusive [inhibitor, full curve, poor fit] | 
C=CC[N+](C)(C)CCCNC(=O)/C=N/O | inactive | 
COc1ccc(/C=N\NC(=O)c2ccccc2Br)cc1COc1c(F)c(F)cc(F)c1F | inconclusive [inhibitor, full curve, poor fit] | 
COc1ccccc1N1CCN(C(=O)c2ccc3[nH]c4c(c3c2)CCCC4)CC1 | inconclusive [inhibitor, single point] | 
O=C(COC(=O)Cc1c[nH]c2ccccc12)Nc1cc(S(=O)(=O)N2CCOCC2)ccc1Cl | inconclusive [inhibitor, partial curve, poor fit] | 
Cc1cc(C)n(-c2ccc(C(=O)OCC(=O)NCc3ccco3)cc2)n1 | inconclusive [inhibitor, single point] | 
O=c1cc(-c2ccccc2Cl)oc2c(NS(=O)(=O)c3cccc4nsnc34)ccc(O)c12 | inconclusive [inhibitor, partial curve] | 
CCc1cc2c(=O)c(-c3nc4ccccc4[nH]3)coc2cc1OC(=O)N1CCOCC1 | inconclusive [inhibitor, partial curve] | 
O=C(N/N=C/c1c(O)n(-c2ccccc2Cl)c(=O)c2ccccc12)c1cccnc1 | inconclusive [inhibitor, full curve] | 
CCN(C(=O)COC(=O)CCOc1ccc(C(C)(C)C)cc1)c1c(N)n(Cc2ccccc2)c(=O)[nH]c1=O | inconclusive [inhibitor, single point] | 
COc1cccc(N(CC(=O)NC2CCCC2)C(=O)Cn2nnc(-c3ccc(C)o3)n2)c1 | inconclusive [inhibitor, single point] | 
Cc1nc2c(-c3ccccc3)cnn2c(N2CCOCC2)c1C | inconclusive [inhibitor, single point] | 
